Experimental findings from patent US11684676B2, “Site-specific antibody-drug conjugates by ADP-ribosyl cyclases” (University of Southern California, priority 2020, dated 2023) are described below.

A short description of the data set: ADP-ribosyl cyclase activities of anti-hCLL-1-CD38 fusions. The data set is classed as biochemical. The settings on record: versus recombinant human CD38 extracellular domain; NGD+ 100 μM. As for the experimental part:
ADP-Ribosyl Cyclase Activities.
The rate of cyclic guanine dinucleotide phosphate-ribose (cGDPR) generation was monitored by a Synergy H1 plate reader (BioTek, VT, USA) for its signature fluorescence (excitation at 300 nm; emission at 410 nm) for 5 minutes.

B1: DAR2-ARC-IgG: anti-hCLL-1 antibody 1075.7 with CD38 fused to C-termini of heavy chains (antibody)
heavy: DIQLQESGPGLVKPSQSLSLTCSVTGYSITSAYYWNWIRQFPGNKLEWMGYISYDGRNNYNPSLKNRISITRDTSKNQFFLKLNSVTTEDTATYYCAKEGDYDVGNYYAMDYWGQGTSVTVSS[about 600 residues with a human IgG1 Fc skipped]
light: ENVLTQSPAIMSASPGEKVTMTCRASSNVISSYVHWYQQRSGASPKLWIYSTSNLASGVPARFSGSGSGTSYSLTISSVEAEDAATYYCQQYSGYPLTFGAGTKLELKRAAAAPSVFIFPPSDEQLKSGTASVVCLLNNFYPREAKVQWKVDNALQSGNSQESVTEQDSKDSTYSLSSTLTLSKADYEKHKVYACEVTHQGLSSPVTKSFNRGEC
As to B1, the catalytic activity entry is given as “significantly higher catalytic activities”.

B2: anti-hCLL-1 antibody: native anti-hCLL-1 monoclonal antibody 1075.7 (SEQ ID NO: 6 and SEQ ID NO: 8) (protein)
light: ENVLTQSPAIMSASPGEKVTMTCRASSNVISSYVHWYQQRSGASPKLWIYSTSNLASGVPARFSGSGSGTSYSLTISSVEAEDAATYYCQQYSGYPLTFGAGTKLELKRAAAAPSVFIFPPSDEQLKSGTASVVCLLNNFYPREAKVQWKVDNALQSGNSQESVTEQDSKDSTYSLSSTLTLSKADYEKHKVYACEVTHQGLSSPVTKSFNRGEC
heavy: DIQLQESGPGLVKPSQSLSLTCSVTGYSITSAYYWNWIRQFPGNKLEWMGYISYDGRNNYNPSLKNRISITRDTSKNQFFLKLNSVTTEDTATYYCAKEGDYDVGNYYAMDYWGQGTSVTVSS[about 350 residues with a human IgG1 Fc skipped]
Turning to B2, the catalytic activity result is “no enzymatic activity”.
